Data taken from PubChem BioAssay AID504339 (National Center for Advancing Translational Sciences (NCATS), 2011).
In all, about 390,000 compounds went through this assay and about 17,000 (4.4%) were called active. Inconclusive means that the source gave no clear call. Such entries were picked first, then a sample of the others. Calls come from the whole dose curve; as a rule, active = well fitted inhibition curve with a large enough effect; inconclusive = small, poorly fitted or top-dose-only effect; inactive = no such curve, though single readings can be large or run the other way. Potencies of inconclusive entries are doubtful fits and often do not repeat. Some compounds were tested as several samples or in several runs, with calls that do not always agree.

target: Lysine-specific demethylase 4A (Homo sapiens) (UniProt O75164); test: qHTS Assay for Inhibitors of JMJD2A-Tudor Domain; conditions: AlphaScreen JMJD2A-Tudor / H3K4me3 peptide binding; series mostly up to 114 µM; note: nearly all actives have a fitted effect of over 50% in size
Sequence of UniProt O75164 (O75164 whole entry, looked up, the tested form may be a part): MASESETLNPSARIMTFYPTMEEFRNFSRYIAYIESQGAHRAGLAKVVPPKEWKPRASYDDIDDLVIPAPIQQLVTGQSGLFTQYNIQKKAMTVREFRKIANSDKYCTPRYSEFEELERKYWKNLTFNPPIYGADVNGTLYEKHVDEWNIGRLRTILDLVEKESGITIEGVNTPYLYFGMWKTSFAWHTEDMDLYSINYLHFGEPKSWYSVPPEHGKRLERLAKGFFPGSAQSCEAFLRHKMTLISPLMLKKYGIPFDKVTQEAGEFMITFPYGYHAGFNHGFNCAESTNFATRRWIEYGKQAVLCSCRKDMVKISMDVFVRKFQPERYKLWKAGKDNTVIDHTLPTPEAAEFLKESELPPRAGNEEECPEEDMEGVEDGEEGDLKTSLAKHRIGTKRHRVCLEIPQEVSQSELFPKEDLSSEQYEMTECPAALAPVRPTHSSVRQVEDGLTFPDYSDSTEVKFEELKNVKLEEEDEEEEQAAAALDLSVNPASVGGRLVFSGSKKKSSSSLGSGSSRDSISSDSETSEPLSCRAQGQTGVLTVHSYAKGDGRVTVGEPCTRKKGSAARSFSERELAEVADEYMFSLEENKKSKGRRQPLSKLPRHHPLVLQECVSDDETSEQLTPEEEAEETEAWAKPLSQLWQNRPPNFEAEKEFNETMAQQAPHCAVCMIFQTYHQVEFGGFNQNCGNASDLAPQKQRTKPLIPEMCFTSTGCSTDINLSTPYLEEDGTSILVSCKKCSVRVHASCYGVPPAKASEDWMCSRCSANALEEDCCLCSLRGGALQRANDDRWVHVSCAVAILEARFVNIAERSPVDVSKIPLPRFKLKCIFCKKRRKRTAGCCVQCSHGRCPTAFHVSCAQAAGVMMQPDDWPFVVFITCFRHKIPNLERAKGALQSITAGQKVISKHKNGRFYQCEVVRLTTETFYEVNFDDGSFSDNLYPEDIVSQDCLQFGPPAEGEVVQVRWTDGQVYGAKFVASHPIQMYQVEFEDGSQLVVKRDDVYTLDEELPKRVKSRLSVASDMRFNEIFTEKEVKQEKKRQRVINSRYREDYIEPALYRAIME
Potency is the fitted concentration of half-maximal effect; tags give direction and shape of the fitted curve.

Potency, inconclusive:
Cc1nn(-c2ccccc2)c(Cl)c1/C=C1\SC(=S)NC1=O 63.1 µM [inhibitor, partial curve]
O=C(O)C1C2C=CC3(CN(C/C=C/c4ccccc4)C(=O)C13)O2 (stereo not given) 100 µM [inhibitor, partial curve, poor fit]
COc1ccc(-c2ccncc2)cc1OC 89.1 µM [inhibitor, partial curve]
O=C(O)c1cccc(Cn2c(Cl)c(/C=N/Nc3ccccc3)sc2=O)c1 44.7 µM [inhibitor, partial curve]
COc1ccc(N2C(=O)C(=O)/C(=C(/O)c3ccc(C)cc3)C2c2cccnc2)cc1 (stereo not given) 39.8 µM [inhibitor, single point]
Cc1cccc(N/C(N)=N/c2nc(C(F)(F)F)cc(=O)[nH]2)c1C 89.1 µM [inhibitor, single point]
COC(=O)C1=C(C)N(Cc2ccccc2)C(=NCCCCO)N[C@H]1c1cccc(C(F)(F)F)c1 22.4 µM [inhibitor, single point]
O=C(Nc1ccc(N2CCC(N3CCCCC3)CC2)c(C(=O)O)c1)c1ccc(Br)cc1 89.1 µM [inhibitor, single point]
Cc1cc(C)nc(SCc2nnc(SCC(N)=O)n2Cc2ccco2)n1 25.1 µM [inhibitor, partial curve, poor fit]
CCN1CCN(c2cc(C)c3cc(NC(=S)NCc4cccs4)ccc3n2)CC1 39.8 µM [inhibitor, partial curve]
COc1cc(/C=C2/SC(=S)N(CC(=O)O)C2=O)ccc1OC(=O)c1cccs1 39.8 µM [inhibitor, partial curve]
CN1CCN(C2CC(=O)N(c3ccc4c(c3)OCCO4)C2=O)CC1 (stereo not given) 89.1 µM [inhibitor, single point]
COc1ccc(OCc2nnc(NC(=O)Nc3ccc(F)cc3)s2)cc1 35.5 µM [inhibitor, full curve]
CC(C)(C)C1CCC(=NNC(=S)NCc2ccccc2)CC1 (stereo not given) 12.6 µM [inhibitor, full curve]
CCCCn1c(SCC(=O)c2ccc(O)c(O)c2)nc2ccsc2c1=O 44.7 µM [inhibitor, single point]
COc1ccccc1-n1c(=S)[nH]c2c(sc(=S)n2-c2ccccc2)c1=O 56.2 µM [inhibitor, partial curve, poor fit]
C=CCn1c(C)cc(C2=NNC(=NCc3ccccc3)SC2)c1C 50.1 µM [inhibitor, partial curve]
COc1cc2c(cc1Cl)/C(=C\CCN(C)C)c1ccccc1S2 56.2 µM [inhibitor, partial curve]
Cc1ccc(SCc2nc(-c3ccncc3)no2)cc1 3.98 µM [inhibitor, single point]
CC(C)CC1NC(C(=O)O)Cc2c1[nH]c1ccccc21 (stereo not given) 39.8 µM [inhibitor, single point]
Cc1[nH]c(=O)[nH]c(=O)c1/C=N/NC(=O)[C@@H](N)CC(C)C 70.8 µM [inhibitor, partial curve]
CC1=C(C(=O)c2ccccc2)C(c2ccc(OC(F)F)cc2)NC(=S)N1 (stereo not given) 39.8 µM [inhibitor, full curve]
Cc1ccc(Cl)cc1Nc1nc(-c2cccnc2)cs1 50.1 µM [inhibitor, partial curve]
NC(=S)n1[nH]c(-c2ccc([N+](=O)[O-])cc2)c(N=Nc2ccc(O)cc2)c1=O 4.47 µM [inhibitor, full curve]
COc1ccc(C2CC(c3ccccc3)=NN2c2ccc(N)cc2)cc1 (stereo not given) 28.2 µM [inhibitor, single point]
CC(C)CC(NS(=O)(=O)c1ccccc1S(=O)(=O)NC(CC(C)C)C(=O)O)C(=O)O (stereo not given) 22.4 µM [inhibitor, full curve]
CCc1ccc(NC2CC(=O)N(CCc3ccc(OC)c(OC)c3)C2=O)cc1 (stereo not given) 15.8 µM [inhibitor, full curve, poor fit]
CC(NC(=O)[C@H](C)N1C(=O)N2CCc3c([nH]c4ccccc34)[C@@]2(C)C1=O)c1ccccc1 (stereo not given in full) 56.2 µM [inhibitor, partial curve]
C=CCN=C(NC#N)SCC(=O)c1cccc(OC)c1 50.1 µM [inhibitor, partial curve]
CC(=O)n1cc([C@H]2C=C(C(=O)N3CCN(Cc4ccccc4)CC3)O[C@@H](OCCCCO)C2)c2ccccc21 63.1 µM [inhibitor, partial curve, poor fit]
C=CCn1c(Cc2cccs2)nnc1SCC(=O)NCc1ccco1 50.1 µM [inhibitor, partial curve]
CCCCn1c(C)cc2cc(O)ccc21 56.2 µM [inhibitor, partial curve]
Nc1ncc(-c2ccccc2)n1CC1CCCO1 (stereo not given) 56.2 µM [inhibitor, partial curve]
Cc1cc(/C=C2\SC(=S)N(Cc3ccco3)C2=O)c(C)n1-c1ccccc1 31.6 µM [inhibitor, partial curve]
COc1ccc(Nc2cc(C(=O)NCCCN3CCOCC3)c3ccccc3n2)cc1OC 50.1 µM [inhibitor, partial curve]
COc1ccccc1NC(=O)C1=C(C)Nc2nnnn2C1c1cc(Br)ccc1OC (stereo not given) 1.78 µM [inhibitor, partial curve]
Cc1ccc(OCc2nnc(NC(=O)c3ccco3)s2)c(C)c1 89.1 µM [inhibitor, partial curve]
COc1ccc(OCCCC(=O)Nc2nc(C)c(C(C)=O)s2)cc1 89.1 µM [inhibitor, single point]
Cc1ccc(NC(=O)COc2coc(CN3c4ccccc4CC3C)cc2=O)c(C)c1 (stereo not given) 50.1 µM [inhibitor, partial curve]
COC(=O)c1cc(C(=O)OCC(=O)N2c3ccccc3NC(=O)C2(C)C)cc([N+](=O)[O-])c1 44.7 µM [inhibitor, full curve, poor fit]
O=C(Cc1ccccc1Nc1c(Cl)cccc1Cl)OCO/N=[N+](\[O-])N1CCCC1 79.4 µM [inhibitor, single point]
COC(=O)c1cc(-c2ccccc2)sc1NC(=O)CN1C(=O)c2ccccc2C1=O 100 µM [inhibitor, single point]

Potency, active:
O=C(O)c1cccc2[nH]c(C(F)(F)F)nc12 31.6 µM
CCC(=O)NC(c1ccccc1OC)c1ccc2cccnc2c1O (stereo not given) 56.2 µM
CCS(=O)(=O)C1=NSC2=NC(=O)/C(=C\c3ccc(OS(=O)(=O)c4ccccc4)c(OC)c3)C(=N)N21 56.2 µM
CCOc1ccc(NC(c2ccccn2)c2oc(CO)cc(=O)c2O)cc1 (stereo not given) 22.4 µM
Cc1ccc(Nc2nc(-c3sc(N)nc3C)cs2)cc1 50.1 µM
CCN1CCN(CCNC(=O)c2ccc(/C=C3/Sc4ccccc4N(Cc4cccc(C)c4)C3=O)cc2)CC1 50.1 µM
CCOc1cc(/C=C2\CN(C)C/C(=C\c3ccc(O)c(OCC)c3)C2=O)ccc1O 56.2 µM
O=C(NCCCN1CCOCC1)c1sc2cc([N+](=O)[O-])ccc2c1Cl 79.4 µM
COc1cccc(CNC2CCCc3ccccc32)c1OC (stereo not given) 79.4 µM
O=C(O)c1cccc(-n2cccc2/C=C2/NC(=O)N(c3ccc(Cl)cc3)C2=O)c1 0.794 µM
CC1CCCCN1Cc1c(O)ccc2c(=O)c(-c3ccc(Cl)cc3)coc12 (stereo not given) 79.4 µM
Cc1cccnc1Nc1nc(-c2ccccn2)cs1 44.7 µM
CCn1c(=O)c(=O)[nH]c2cc(C(=O)NC3CCCC3)ccc21 12.6 µM
COc1ccc(/C=N/n2c(C3CCCCC3)n[nH]c2=S)c(OC)c1 39.8 µM

Potency, inactive:
CCOc1ccccc1NC(=O)c1c(C)cc(C)nc1SCC(=O)c1cccc(OC)c1
CCc1ccc(-n2nc(C)c3c(C(=O)Nc4cccc(C(F)(F)F)c4)cc(C)nc32)cc1
O=C(Nc1cccc(C(=O)N2CCCCC2)c1)c1nsc2ccccc12
Cc1cc(Nc2cccc(C(F)(F)F)c2)nc2ccc(NC(=O)c3ccc(N(C)C)cc3)cc12
CCCc1c(C(=O)N/N=C/c2ccncc2)nnn1-c1nonc1N
CC1(C)O[C@H]2[C@@H](O1)[C@@H](C(=O)Nc1ccccc1O)O[C@@H]1OC(C)(C)O[C@@H]12
CCC(Cc1ccccc1)NC(=O)c1ccc2nc(N3CCC(C)CC3)sc2c1 (stereo not given)
Cc1c(C(=O)c2ccccc2)c2ccccn2c1CCc1ccccn1
CC(C)OC(=O)c1cccc(C(=O)Oc2ccc(Br)cc2)n1
CCCCCCC(=O)N/N=C/c1ccco1
CC1CCCN(C(=O)COC(=O)CNC(=O)c2ccc(Br)cc2)C1 (stereo not given)
CCCNS(=O)(=O)c1ccc(CCC(=O)N2CCOCC2)cc1
O=C(NNC(=S)NCc1ccccc1)c1cccnc1
CC1Sc2ccc(S(=O)(=O)N3CCC(C(=O)Nc4cccc(Cl)c4)CC3)cc2NC1=O (stereo not given)
